Experimental data reported in the supplement of paper PMC12582362.
Structures can show the parent of a compound that is named as a salt. Screen size: about 1,500 compounds; about 30 (2%) showed activity.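 Rule for the calls: active = robust z-score below -2; a few such results were not called.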 The list shows a part of the results.

Tested on: optoTopBP1 Flp-In 293 T-REx (HEK293) cells
Test: light-induced TopBP1 condensate (nuclear foci) count, plate-normalised robust z-score vs non-control wells; higher = more TopBP1 condensates (negative = condensation inhibitor), active = hit call of the paper
Conditions: 10 µM; incubation time 2 h

Row | Structure (SMILES) | light-induced TopBP1 condensate (z-score)
1 | C=C1[C@H](CO)[C@@H](O)C[C@@H]1n1cnc2c(=O)[nH]c(N)nc21 [Entecavir] | inactive: 0.104
2 | CC/C=C(\C(=O)N[C@@H]1C(=O)N2C(C(=O)OCOC(=O)C(C)(C)C)=C(COC(N)=O)CS[C@H]12)c1csc(N)n1 [Cefcapene pivoxil hydrochloride] | inactive: -0.782
3 | Cc1c(F)c(N2CCNC(C)C2)cc2c1c(=O)c(C(=O)O)cn2C1CC1 (stereo unspecified) [Grepafloxacin] | inactive: -0.138
4 | N=C(N=C(N)N)N1CCOCC1 [Moroxidine hydrochloride] | inactive: 0.265
5 | CC(=O)OCC(=O)[C@@]12OC3(CCCC3)O[C@@H]1C[C@H]1[C@@H]3CCC4=CC(=O)C=C[C@]4(C)[C@@]3(F)[C@@H](O)C[C@@]12C [Amcinonide] | inactive: 0.776
6 | CC(=O)Nc1ccc(OCC(O)CNC(C)C)cc1 (stereo unspecified) [Practolol] | inactive: 0.429
7 | CN1[C@@H]2CC[C@H]1C[C@@H](OC(c1ccccc1)c1ccccc1)C2 [Benztropine mesylate] | inactive: -1.3
8 | O=C(Nc1ccccc1)OCC(CN1CCCCC1)OC(=O)Nc1ccccc1 (stereo unspecified) [Diperodon hydrochloride] | inactive: -0.994
9 | CCCCC1C(=O)N(c2ccccc2)N(c2ccccc2)C1=O [Phenylbutazone] | inactive: 0.62
10 | CCCc1nc2c(C)cc(-c3nc4ccccc4n3C)cc2n1Cc1ccc(-c2ccccc2C(=O)O)cc1 [Telmisartan] | inactive: -0.0531
11 | CCCCOC(=O)c1ccc(O)cc1 [Butylparaben] | inactive: -0.619
12 | COCCCOc1cc(C[C@@H](C[C@H](N)[C@@H](O)C[C@H](C(=O)NCC(C)(C)C(N)=O)C(C)C)C(C)C)ccc1OC [Aliskiren hemifumarate] | inactive: -0.517
13 | CC(=O)/N=c1/sc(S(N)(=O)=O)nn1C [Methazolamide] | inactive: 0.0353
14 | N=C(N)N1CCc2ccccc2C1 [Debrisoquin sulfate] | inactive: 0.854
15 | C[C@H](O)[C@H](O)[C@H]1CNc2[nH]c(N)nc(=O)c2N1 [Sapropterin dihydrochloride] | inactive: 0.574
16 | O=C(O)Cc1cc(I)c(Oc2ccc(O)c(I)c2)c(I)c1 [Tiratricol, 3,3',5-triiodothyroacetic acid] | inactive: 0.358
17 | COCCCOc1ccnc(C[S+]([O-])c2nc3ccccc3[nH]2)c1C (stereo unspecified) [Rabeprazole Sodium salt] | inactive: -0.658
18 | CNCC[C@@H](Oc1ccccc1C)c1ccccc1 [Tomoxetine hydrochloride] | inactive: -1.4
19 | Cc1ccc(C(=O)C(C)CN2CCCCC2)cc1 (stereo unspecified) [Tolperisone hydrochloride] | inactive: 0.383
20 | O=C(CCCCC(=O)Nc1c(I)cc(I)c(C(=O)O)c1I)Nc1c(I)cc(I)c(C(=O)O)c1I [Iodipamide] | inactive: -0.465
21 | NS(=O)(=O)c1cc2c(cc1Cl)N=CNS2(=O)=O [Chlorothiazide] | inactive: 0.000355
22 | O=C(CCCl)NCc1ccccc1 [Beclamide] | inactive: 0.736

Row | Structure (SMILES) | light-induced TopBP1 condensate (z-score)
23 | CN[C@H](CC(C)C)C(=O)N[C@H]1C(=O)N[C@@H](CC(N)=O)C(=O)N[C@H]2C(=O)N[C@H]3C(=O)N[C@H](C(=O)N[C@H](C(=O)O)c4cc(O)cc(O)c4-c4cc3ccc4O)[C@H](O)c3ccc(c(Cl)c3)Oc3cc2cc(c3O[C@@H]2O[C@H](CO)[C@@H](O)[C@H](O)[C@H]2O[C@H]2C[C@](C)(N)[C@H](O)[C@H](C)O2)Oc2ccc(cc2Cl)[C@H]1O [Vancomycin hydrochloride] | inactive: 0.547
24 | CNS(=O)(=O)Cc1ccc2[nH]cc(CCN(C)C)c2c1 [Sumatriptan succinate] | inactive: 0.656
25 | NC(=O)c1ncn([C@@H]2O[C@H](CO)[C@@H](O)[C@H]2O)n1 [Ribavirin] | inactive: -0.423
26 | CCOC(=O)[C@H](CCc1ccccc1)N[C@@H](C)C(=O)N1[C@H](C(=O)O)C[C@@H]2CCC[C@@H]21 [Ramipril] | inactive: 1.01
27 | CCOc1ccc2c(c1)C(C)=CC(C)(C)N2 [Ethoxyquin] | inactive: 0.549
28 | CC(C)COCC(CN(Cc1ccccc1)c1ccccc1)N1CCCC1 (stereo unspecified) [Bepridil hydrochloride] | inactive: 0.64
29 | O=C(O)c1cc(=O)c2ccccc2o1 [Chromocarb] | inactive: -0.4
30 | NS(=O)(=O)c1cc(C(=O)O)c(NCc2ccco2)cc1Cl [Furosemide] | inactive: 0.751
31 | Cc1cc(C2CCCCC2)n(O)c(=O)c1 [Ciclopirox ethanolamine] | inactive: -0.67
32 | COc1cc(C(=O)NS(=O)(=O)c2ccccc2C)ccc1Cc1cn(C)c2ccc(NC(=O)OC3CCCC3)cc12 [Zafirlukast] | inactive: -0.639
33 | O=C1NCN(c2ccccc2)C12CCN(CCCC(c1ccc(F)cc1)c1ccc(F)cc1)CC2 [Fluspirilen] | inactive: -0.796
34 | CC(C)(C)C(=O)OCOC(=O)[C@@H]1N2C(=O)[C@@H](NC(=O)[C@H](N)c3ccccc3)[C@H]2SC1(C)C [Pivampicillin] | inactive: 0.172
35 | CN(C)C(=O)COC(=O)Cc1ccc(OC(=O)c2ccc(NC(=N)N)cc2)cc1 [Camostat mesylate] | inactive: -0.369
36 | N=C(N)NC(=O)c1nc(Cl)c(N)nc1N [Amiloride hydrochloride dihydrate] | inactive: 0.285
37 | CCCCOC(=O)c1ccc(N)cc1 [Butamben] | inactive: 1.14
38 | N[C@@H]1CCCCN(c2c(F)cc3c(=O)c(C(=O)O)cn(C4CC4)c3c2Cl)C1 [Besifloxacin hydrochloride] | inactive: -0.0694
39 | CC[C@H]1OC(=O)[C@H](C)[C@@H](O[C@H]2C[C@@](C)(OC)[C@@H](O)[C@H](C)O2)[C@H](C)[C@@H](O[C@@H]2O[C@H](C)C[C@H](N(C)C)[C@H]2O)[C@](C)(OC)C[C@@H](C)C(=O)[C@H](C)[C@@H](O)[C@]1(C)O [Clarithromycin] | inactive: 0.467
40 | CCOc1ccccc1OCC1CNCCO1 (stereo unspecified) [Viloxazine hydrochloride] | inactive: 0.74
41 | NC(=O)Cc1cccc(C(=O)c2ccccc2)c1N [Nepafenac] | inactive: 0.184
42 | CC(C)COC(=O)OCN1C(=O)CN(CCN2CC(=O)N(COC(=O)OCC(C)C)C(=O)C2)CC1=O [Sobuzoxane] | inactive: 0.7
43 | CCCCC1=NC2(CCCC2)C(=O)N1Cc1ccc(-c2ccccc2-c2nnn[nH]2)cc1 [Irbesartan] | inactive: -0.971
44 | COCC1=C(C(=O)OC(C)OC(=O)OC(C)C)N2C(=O)[C@@H](NC(=O)/C(=N\OC)c3csc(N)n3)[C@H]2SC1 (stereo partly specified) [Cefpodoxime proxetil] | inactive: -1.06

Row | Structure (SMILES) | light-induced TopBP1 condensate (z-score)
45 | CCN(CC)CCOC(=O)C(c1ccccc1)C1CCCCC1 (stereo unspecified) [Drofenine hydrochloride] | inactive: 0.242
46 | O=C(CCCN1CCC(O)(c2ccc(Br)cc2)CC1)c1ccc(F)cc1 [Bromperidol] | inactive: -0.747
47 | CC(C(=O)O)c1ccc(N2CC=CC2)c(Cl)c1 (stereo unspecified) [Pirprofen] | inactive: 0.653
48 | CO[C@@]1(NC(=O)Cc2cccs2)C(=O)N2C(C(=O)O)=C(COC(N)=O)CS[C@@H]21 [Cefoxitin sodium salt] | inactive: 0.497
49 | CC(=O)c1ccc2c(c1)N(CCCN1CCC(CCO)CC1)c1ccccc1S2 [Piperacetazine] | inactive: -0.657
50 | COC(=O)C1=C(C)NC(C)=C(C(=O)O[C@H]2CCN(Cc3ccccc3)C2)[C@H]1c1cccc([N+](=O)[O-])c1 [Barnidipine Hydrochloride] | inactive: -1.06
51 | C=CCOc1ccc(CC(=O)O)cc1Cl [Alclofenac] | inactive: 0.0679
52 | CCCCC(CC)CN1CN(CC(CC)CCCC)CC(C)(N)C1 (stereo unspecified) [Hexetidine] | inactive: -0.633
53 | COc1cc2c(cc1OC)C(=O)C(CC1CCN(Cc3ccccc3)CC1)C2 (stereo unspecified) [Donepezil hydrochloride] | inactive: -1.01
54 | CN(C)c1ccc2nc3ccc(=[N+](C)C)cc-3sc2c1 [Methylene blue] | active: -8.05
55 | Cc1cccc(C)c1NC(=O)C1CCCCN1C (stereo unspecified) [Mepivacaine hydrochloride] | inactive: 0.0803
56 | COc1ccc(C2C(=O)c3ccccc3C2=O)cc1 [Anisindione] | inactive: 0.789
57 | CN1C(C(=O)Nc2ccccn2)=C(O)c2sccc2S1(=O)=O [Tenoxicam] | inactive: 0.103
58 | Cc1ncc([N+](=O)[O-])n1CC(O)CCl (stereo unspecified) [Ornidazole] | inactive: 0.357
59 | C[C@]12CC[C@H]3C(=CCc4cc(O)ccc43)[C@@H]1CCC2=O [Equilin] | inactive: 0.0892
60 | C=C[C@H]1CN2CC[C@H]1C[C@@H]2[C@@H](O)c1ccnc2ccc(OC)cc12 [Quinidine hydrochloride monohydrate] | inactive: -1.31
61 | Cn1c(=O)c2[nH]cnc2n(C)c1=O [Aminophylline] | inactive: 0.624
62 | CS(=O)(=O)c1ccc(C2=C(c3ccccc3)C(=O)OC2)cc1 [Rofecoxib] | inactive: 1.03
63 | CN(C)CCC=C1c2ccccc2CCc2ccccc21 [Amitryptiline hydrochloride] | inactive: -0.226
64 | Cc1ccnc2c1NC(=O)c1cccnc1N2C1CC1 [Nevirapine] | inactive: -0.183
65 | Cc1[nH]c(=O)c(C#N)cc1-c1ccncc1 [Milrinone] | inactive: 1.01
66 | CC(=O)N[C@@H](CCC(N)=O)C(=O)O [Acetyl-L-glutamine] | inactive: -0.0671
